The results in this text go back to article PMC6726247.

Sequences of proteins named here, by UniProt entry; tags and fusion partners are left off.
UniProt P11440: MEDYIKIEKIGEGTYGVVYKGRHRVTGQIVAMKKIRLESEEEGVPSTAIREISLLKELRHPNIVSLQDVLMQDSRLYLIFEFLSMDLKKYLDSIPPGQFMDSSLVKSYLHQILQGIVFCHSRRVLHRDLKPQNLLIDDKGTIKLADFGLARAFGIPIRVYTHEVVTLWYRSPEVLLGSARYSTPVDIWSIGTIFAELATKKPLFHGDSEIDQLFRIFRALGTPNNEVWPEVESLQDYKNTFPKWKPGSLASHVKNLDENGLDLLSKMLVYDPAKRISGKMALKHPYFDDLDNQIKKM
UniProt Q9CWH6: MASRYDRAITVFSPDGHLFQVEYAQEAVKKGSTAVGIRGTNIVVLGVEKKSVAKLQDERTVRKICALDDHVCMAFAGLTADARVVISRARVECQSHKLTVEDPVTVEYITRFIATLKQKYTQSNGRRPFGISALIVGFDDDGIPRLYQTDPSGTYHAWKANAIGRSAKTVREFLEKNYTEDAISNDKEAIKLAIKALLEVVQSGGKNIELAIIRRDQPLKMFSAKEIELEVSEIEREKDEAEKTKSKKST

What all share (assay): co-IP; HEK293T cells transiently co-transfected with Flag- and GFP-tagged proteins; whole cell extracts precipitated with anti-Flag, anti-EGFP or control IgGs on protein G-Sepharose o/n; western blot
In general terms: A western blot detects proteins with antibodies after separation by electrophoresis.

One assay deals with GFP-CDK1 (mouse) (UniProt P11440).
The target of assay [1] is Flag-PSMA8 (mouse) (UniProt Q9CWH6).
Assay [2] shares this target. The source holds these as a separate data set.
Another assay addresses T1, Flag-SYCE2 (mouse) (UniProt Q505B8).
T1 sequence: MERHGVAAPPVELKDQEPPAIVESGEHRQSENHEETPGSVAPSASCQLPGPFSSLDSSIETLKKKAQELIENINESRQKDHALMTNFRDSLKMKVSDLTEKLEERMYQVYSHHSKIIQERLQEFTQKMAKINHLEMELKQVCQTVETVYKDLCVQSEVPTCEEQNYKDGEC

Like-named read-outs stand apart in the source and are kept apart here. Results are given in words; binding and its absence hold for the method and conditions named. In cells and extracts the contact can be indirect. Some entries that bind do so weakly or less than the wild type. For some of these results: Where a sequence is shown, tags or fusion partners need not be part of it.

On to Flag-PSMA8 (from UniProt Q9CWH6 1-250), for which the binding entry in the assay with GFP-CDK1 (mouse) is listed as “binds”.
As to GFP-CDK1 (from UniProt P11440 1-297), the binding entry with Flag-PSMA8 (mouse) [1] is recorded as “binds”.

B1: GFP-SYCE3 (protein, UniProt B5KM66 1-88)
chain: MADSDPGERSYDNMLKMLSDLNKDLEKLLEEMEKISVQATWMAYDMVVMRTNPTLAESMRRLEDAFLNCKEEMEKNWQELLTETKRKQ
Consider B1, for which the binding result with Flag-PSMA8 (mouse) [2] was “binds”.

B2: GFP-SYCE2 (protein, UniProt Q505B8 1-171)
chain: MERHGVAAPPVELKDQEPPAIVESGEHRQSENHEETPGSVAPSASCQLPGPFSSLDSSIETLKKKAQELIENINESRQKDHALMTNFRDSLKMKVSDLTEKLEERMYQVYSHHSKIIQERLQEFTQKMAKINHLEMELKQVCQTVETVYKDLCVQSEVPTCEEQNYKDGEC
B2: the binding result with Flag-PSMA8 (mouse) [2] is “no binding”.

B3: GFP-TRIP13 (protein, UniProt Q3UA06 1-432)
chain: MDEAVGDLKQALPCVAESPAVHVEVLQRSGSTAKKEDIKSSVYRLLNRHNIVFGDYVWTEFDDPFLSRNVQSVSIVDTELKAKDPQPIDLSACTIALHIFQLNEEGPSSENLDEETENIIAASHWVLPAAEFHGLWDSLVYDVEVKSHLLDYVMTTVLFSDKNVDSNLITWNRVVLLHGPPGTGKTSLCKALAQKLTIRLSSRYRYGQLIEINSHSLFSKWFSESGKLVTKMFQKIQDLIDDKEALVFVLIDEVESLTAARNACRAGAEPSDAIRVVNAVLTQIDQIKRHSNVVILTTSNITEKIDVAFVDRADIKQYIGPPSAAAIFKIYLSCLEELMKCQIIYPRQQLLTLRELEMIGFIENNVSKLSLLLSEISRKSEGLSGRVLRKLPFLAHALYIQAPSVTIEGFLQALSLAVDKQFEEKKKLSAYV
As for B3, the binding result in the assay with Flag-PSMA8 (mouse) [2] is “binds”.

B4: GFP-SYCE1 (protein, UniProt Q9D495 1-329)
chain: MATRPQPLGMEPEGSADLLHGPEGARGQYGSTQKIEDLMDMVKKLQKVGSLEPRIEVLINRINEVQQAKKKASEELGEAQTVWDNLQKELDLLREEKVRLKDILNRKEETLRIMQLHCQEKESEAQRKHSMLQECKERISFLNSQIDKEKAKLRKLRLDFEEHLETLMSQHKDTLEFHKPEHLTKEMCVLDSSKEQLLKEEKLMKVKLEDVRQRLCALGGPEGSSSLIEGLFLRSHEAAAAMQMFKDENKKAEEFLEAAAQQHEQLQQRCHQLQQKRQRLKEELEKHGVQILAHSTQNEEDSSWRMASPKPVEVHEETAQDQERPSSRT
Consider B4, for which the binding result with Flag-PSMA8 (mouse) [2] is given as “no binding”.

B5: GFP-SYCP1 (protein, UniProt Q62209 1-993)
chain: MEKQKPFTLFVPPRLSSSQVSAVKPQTAGGDSNYFKTANKCTEGDFGVPFTMSSRENIDKDPAFQKLSILPMLEQVANSGSCHYQEGVNDSDFENSEPMSRLYSKLYKEAEKIKKWKVSIESELKQKENKLQENRKIIEAQRKAIQELQFENEKVSLKLEEEIQENKDLIKENNATIHWCNLLKETCARSAEKTNKYEYEREETRQVYVDLNSNIEKMILAFEELRVQAENARLEMHFKLKEDHEKIQHLEEEYQKEVNNKENQVSELLIQSAEKENKMKDLTFLLEESRDKANQLEEKTKLQDENLKELSEKKDHLTSELEDIKMSMQRSMSTQKALEEDLQIATKTISQLTEVKEAQMEELNKAKTTHSFVVTELKATTCTLEELLRTEQQRLEKNEDQLKLITVELQKKSNELEEMTKFKNNKEVELEELKNILAEDQKLLDEKKQVEKLAEELQEKEQELTFLLETREKEVHDLQEQVTVTKTSEQHYLKQVEEMKTELEKEKLKNTELTASCDMLLLENKKFVQEASDMALELKKHQEDIINCKKQEERLLKQIENLEEKEMHLRDELESVRKEFIQQGDEVKCKLDKSEENARSIECEVLKKEKQMKILESKCNNLKKQVENKSKNIEELHQENKTLKKKSSAEIKQLNAYEIKVSKLELELESTKQRFEEMTNNYQKEIENKKISEGKLLGEVEKAKATVDEAVKLQKEIDLRCQHKIAEMVALMEKHKHQYDKIVEERDSELGLYKNREQEQSSAKIALETELSNIRNELVSLKKQLEIEKEEKEKLKMAKENTAILKDKKDKKIQASLLESPEATSWKFDSKTTPSQNISRLSSSMDSGKSKDNRDNLRASAKSILPTTVTKEYTVKTPTKKSIYQRENKYIPTGGSNKKRKTAFEFDVNSDSSETADLLSLVSEEDVSNRLYDNNPPDSHLLVKTPKQTPLSLSTPASFMKFGSLKKMREDRWTTIAKIDRKRRLKEAEKLFS
With B5, in the assay with Flag-PSMA8 (mouse) [2], the binding result is on record as “binds”.

B6: GFP-SIX6OS1 (protein, UniProt Q9CTN5 1-574)
chain: MNDNLFVSLDRLLLEFVFQYEQDISIKEDTIQRINKCLESIKENKANVSKLREAINKVDEDIAFHYKHSKEIKDSCSNWKPTCDVFHKHEDYIKDQLTAYQETNEKDKKMYHDYICQYEDVLKQYQLKYSETRFSCKYYEKKKEHEEIKNRVLACTEQLQLNETILMKFLVPAPFPSLTKWTLYVVNLRYRTQDILKRANNFTKRSFELEKEADDMEIEINSLNKMARLFESKTFSEALDEKNKNTEKRKEFEERIFEKDEQVSNRSSQNSQLLLPCESQKFVRNMNSSEARVTDKKEESSANQSKFVRSDVRQKENNPQIFNDSGMDSNSKSSHIPAVKSSQGFMQFRLNQPNYNQRIEKEHIDAECGDKETVRQVRESKCSTQALYIEHFGKSIENNSVEEERDENFPQTPETPSFLRTPEALKTPESMEKMQFPKSPFFEITKNATSEGHKQKDSPGFSFLMSYTSRSPGLNLFDSSVSDSEISSDQFNEHYSAVNLNPSSSQQGIGNLFGKSEGEDAFTFSFSSDSSHTFGAGKDDFSFPFSFEQDPSTMTSSSSKDFSSSQNKTQFMFF
With B6, the binding entry in the assay with Flag-PSMA8 (mouse) [2] was “binds”.

B7: GFP-TEX12 (protein, UniProt Q9CR81 1-123)
chain: MMANHLVKPDSRNCKRARELEPQVSDSPQVSSLGKSESSLSEASGLFYKEEALEKDLSDMSKEINLMLSTYAKILSERAAVDASYIDEIDGLFKEANIIENFLVQKREFLKQRFTVITNTLHK
Take B7: the binding entry in the assay with Flag-PSMA8 (mouse) [2] is “no binding”; with Flag-SYCE2 (mouse) it was “binds”.
